#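 Where inhibition never reached the appropriate level, the endpoint shown equals the highest concentration tested. Otherwise, values were interpolated linearly from a five-concentration, 48-hour dose response in 96-well plates. At the GI50, growth is halved. The concentration for full growth arrest is given as TGI.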
# Tested on: NCI-H322M lung
# Assay: NCI tumour cell line growth inhibition, 48 h
smiles,measurement,value
COc1ccc(/C=C/C(=O)c2ccc(S(=O)(=O)NCCNc3nc(Nc4ccc(F)cc4)nc(N(C)C)n3)cc2)cc1,GI50,10.2 µM
same,TGI,> 100 µM

# — PubChem BioAssay (NCI)
